# According to the supplement of paper PMC8728848:
# The other results are listed elsewhere or left out.
# B1: OVGAL11 (Ovis aries), AAF64320 (protein)
# chain: MDSLPNPYLQSVSLTVCYMVKIKANLLSAFGKNPELQVDFGTGTGQGGNIPFRFWYCDGMVVMNTFTDGSWQKEEKVLTDAFVPGQPFELQFLVLEKEYQVFVKNKPICQFAHRLPLQSVKMLDVRGDIVLTSVDTL
# Columns and labels:
# Assay in all cases: glycan array binding signal (z-score within array); higher = stronger binding
# Conditions in all cases: glycan notation: IUPAC condensed, linker removed
# [1] = biological target: Neu5Ac(a2-3)GalNAc(b1-4)GlcNAc
# Outline: (§1)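 The binding signal is a Z-score computed within each array and averaged over linkers. Arrays of the same protein sequence at different concentrations or buffers were also averaged together. Data originate from 3228 arrays in the Consortium for Functional Glycomics database, kept only where the protein sequence was available.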
# [2] = biological target: Neu5Ac(a2-3)[GalNAc(b1-4)]Gal(b1-4)Glc
# Outline: as §1
# [3] = biological target: Neu5Ac(a2-3)[GalNAc(b1-4)]Gal(b1-4)GlcNAc
# Outline: as §1
# [4] = biological target: Neu5Ac(a2-3)[GalNAc(b1-4)]Gal(b1-4)GlcNAc(b1-3)GalNAc
# Outline: as §1
# [5] = biological target: Neu5Ac(a2-3)[Neu5Ac(a2-6)]GalNAc
# Outline: as §1
# Neu5Ac(a2-6)Gal = biological target: Neu5Ac(a2-6)Gal
# Outline: as §1
# [6] = biological target: Neu5Ac(a2-6)Gal(b1-3)GlcNAc(b1-3)[Gal(b1-4)GlcNAc(b1-6)]Gal(b1-4)Glc
# Outline: as §1
# Neu5Ac(a2-6)Gal(b1-4)Glc = biological target: Neu5Ac(a2-6)Gal(b1-4)Glc
# Outline: as §1
# [7] = biological target: Neu5Ac(a2-6)Gal(b1-4)GlcNAc
# Outline: as §1
# [8] = biological target: Neu5Ac(a2-6)Gal(b1-4)GlcNAc(b1-2)Man
# Outline: as §1
# [9] = biological target: Neu5Ac(a2-6)Gal(b1-4)GlcNAc(b1-2)Man(a1-3)Man(b1-4)GlcNAc(b1-4)GlcNAc
# Outline: as §1
# [10] = biological target: Neu5Ac(a2-6)Gal(b1-4)GlcNAc(b1-2)Man(a1-3)[Gal(b1-4)GlcNAc(b1-2)Man(a1-6)]Man(b1-4)GlcNAc(b1-4)GlcNAc
# Outline: as §1
# [11] = biological target: Neu5Ac(a2-6)Gal(b1-4)GlcNAc(b1-2)Man(a1-3)[GlcNAc(b1-2)Man(a1-6)]Man(b1-4)GlcNAc(b1-4)GlcNAc
# Outline: as §1
# [12] = biological target: Neu5Ac(a2-6)Gal(b1-4)GlcNAc(b1-2)Man(a1-3)[GlcNAc(b1-4)][Neu5Ac(a2-6)Gal(b1-4)GlcNAc(b1-2)Man(a1-6)]Man(b1-4)GlcNAc(b1-4)GlcNAc
# Outline: as §1
# [13] = biological target: Neu5Ac(a2-6)Gal(b1-4)GlcNAc(b1-2)Man(a1-3)[Man(a1-6)]Man(b1-4)GlcNAc(b1-4)GlcNAc
# Outline: as §1
# [14] = biological target: Neu5Ac(a2-6)Gal(b1-4)GlcNAc(b1-2)Man(a1-3)[Neu5Ac(a2-3)Gal(b1-4)GlcNAc(b1-2)Man(a1-6)]Man(b1-4)GlcNAc(b1-4)GlcNAc
# Outline: as §1
# [15] = biological target: Neu5Ac(a2-6)Gal(b1-4)GlcNAc(b1-2)Man(a1-3)[Neu5Ac(a2-6)Gal(b1-4)GlcNAc(b1-2)Man(a1-6)]Man(b1-4)GlcNAc(b1-4)GlcNAc
# Outline: as §1
# [16] = biological target: Neu5Ac(a2-6)Gal(b1-4)GlcNAc(b1-2)Man(a1-3)[Neu5Ac(a2-6)Gal(b1-4)GlcNAc(b1-2)Man(a1-6)]Man(b1-4)GlcNAc(b1-4)[Fuc(a1-6)]GlcNAc
# Outline: as §1
# [17] = biological target: Neu5Ac(a2-6)Gal(b1-4)GlcNAc(b1-2)Man(a1-6)Man(b1-4)GlcNAc(b1-4)GlcNAc
# Outline: as §1
# [18] = biological target: Neu5Ac(a2-6)Gal(b1-4)GlcNAc(b1-2)Man(a1-6)[Gal(b1-4)GlcNAc(b1-2)Man(a1-3)]Man(b1-4)GlcNAc(b1-4)GlcNAc
# Outline: as §1
# [19] = biological target: Neu5Ac(a2-6)Gal(b1-4)GlcNAc(b1-2)Man(a1-6)[GlcNAc(b1-2)Man(a1-3)]Man(b1-4)GlcNAc(b1-4)GlcNAc
# Outline: as §1
# [20] = biological target: Neu5Ac(a2-6)Gal(b1-4)GlcNAc(b1-2)Man(a1-6)[Man(a1-3)]Man(b1-4)GlcNAc(b1-4)GlcNAc
# Outline: as §1
# [21] = biological target: Neu5Ac(a2-6)Gal(b1-4)GlcNAc(b1-2)[Neu5Ac(a2-6)Gal(b1-4)GlcNAc(b1-4)]Man(a1-3)[GlcNAc(b1-4)][Neu5Ac(a2-6)Gal(b1-4)GlcNAc(b1-2)[Neu5Ac(a2-6)Gal(b1-4)GlcNAc(b1-6)]Man(a1-6)]Man(b1-4)GlcNAc(b1-4)GlcNAc
# Outline: as §1
# [22] = biological target: Neu5Ac(a2-6)Gal(b1-4)GlcNAc(b1-2)[Neu5Ac(a2-6)Gal(b1-4)GlcNAc(b1-4)]Man(a1-3)[GlcNAc(b1-4)][Neu5Ac(a2-6)Gal(b1-4)GlcNAc(b1-4)Man(a1-6)]Man(b1-4)GlcNAc(b1-4)GlcNAc
# Outline: as §1
# [23] = biological target: Neu5Ac(a2-6)Gal(b1-4)GlcNAc(b1-2)[Neu5Ac(a2-6)Gal(b1-4)GlcNAc(b1-6)]Man(a1-6)[Neu5Ac(a2-6)Gal(b1-4)GlcNAc(b1-2)Man(a1-3)][GlcNAc(b1-4)]Man(b1-4)GlcNAc(b1-4)GlcNAc
# Outline: as §1
# [24] = biological target: Neu5Ac(a2-6)Gal(b1-4)GlcNAc(b1-3)Gal(b1-3)GlcNAc
# Outline: as §1
# [25] = biological target: Neu5Ac(a2-6)Gal(b1-4)GlcNAc(b1-3)Gal(b1-4)GlcNAc
# Outline: as §1
# [26] = biological target: Neu5Ac(a2-6)Gal(b1-4)GlcNAc(b1-3)Gal(b1-4)GlcNAc(b1-2)Man(a1-3)[Neu5Ac(a2-6)Gal(b1-4)GlcNAc(b1-3)Gal(b1-4)GlcNAc(b1-2)Man(a1-6)]GalNAc
# Outline: as §1
# [27] = biological target: Neu5Ac(a2-6)Gal(b1-4)GlcNAc(b1-3)Gal(b1-4)GlcNAc(b1-3)Gal(b1-4)GlcNAc
# Outline: as §1
# [28] = biological target: Neu5Ac(a2-6)Gal(b1-4)GlcNAc(b1-3)Gal(b1-4)GlcNAc(b1-3)Gal(b1-4)GlcNAc(b1-2)Man(a1-3)[Neu5Ac(a2-6)Gal(b1-4)GlcNAc(b1-3)Gal(b1-4)GlcNAc(b1-3)Gal(b1-4)GlcNAc(b1-2)Man(a1-6)]GalNAc
# Outline: as §1
# [29] = biological target: Neu5Ac(a2-6)Gal(b1-4)GlcNAc(b1-3)Gal(b1-4)GlcNAc(b1-3)GalNAc
# Outline: as §1
# [30] = biological target: Neu5Ac(a2-6)Gal(b1-4)GlcNAc(b1-3)Gal(b1-4)GlcNAc(b1-3)[Neu5Ac(a2-6)Gal(b1-4)GlcNAc(b1-3)Gal(b1-4)GlcNAc(b1-6)]GalNAc
# Outline: as §1
# [31] = biological target: Neu5Ac(a2-6)Gal(b1-4)GlcNAc(b1-3)Gal(b1-4)GlcNAc(b1-6)[Gal(b1-3)]GalNAc
# Outline: as §1
# [32] = biological target: Neu5Ac(a2-6)Gal(b1-4)GlcNAc(b1-3)Gal(b1-4)[Fuc(a1-3)]GlcNAc(b1-3)Gal(b1-4)[Fuc(a1-3)]GlcNAc
# Outline: as §1
# [33] = biological target: Neu5Ac(a2-6)Gal(b1-4)GlcNAc(b1-3)GalNAc
# Outline: as §1
# [34] = biological target: Neu5Ac(a2-6)Gal(b1-4)GlcNAc(b1-3)[Neu5Ac(a2-6)Gal(b1-4)GlcNAc(b1-6)]GalNAc
# Outline: as §1
# [35] = biological target: Neu5Ac(a2-6)Gal(b1-4)GlcNAc(b1-6)GalNAc
# Outline: as §1
# [36] = biological target: Neu5Ac(a2-6)Gal(b1-4)GlcNAc(b1-6)[Gal(b1-3)GlcNAc(b1-3)]Gal(b1-4)Glc
# Outline: as §1
binder,measurement,setting,value
B1,glycan array binding signal (z-score),[1],-0.233
same,glycan array binding signal (z-score),[2],-0.126
same,glycan array binding signal (z-score),[3],-0.082
same,glycan array binding signal (z-score),[4],-0.043
same,glycan array binding signal (z-score),[5],-0.212
same,glycan array binding signal (z-score),Neu5Ac(a2-6)Gal,-0.053
same,glycan array binding signal (z-score),[6],-0.098
same,glycan array binding signal (z-score),Neu5Ac(a2-6)Gal(b1-4)Glc,-0.091
same,glycan array binding signal (z-score),[7],-0.149
same,glycan array binding signal (z-score),[8],-0.114
same,glycan array binding signal (z-score),[9],-0.056
same,glycan array binding signal (z-score),[10],-0.122
same,glycan array binding signal (z-score),[11],-0.107
same,glycan array binding signal (z-score),[12],-0.104
same,glycan array binding signal (z-score),[13],-0.073
same,glycan array binding signal (z-score),[14],-0.08
same,glycan array binding signal (z-score),[15],-0.138
same,glycan array binding signal (z-score),[16],-0.063
same,glycan array binding signal (z-score),[17],-0.084
same,glycan array binding signal (z-score),[18],-0.084
same,glycan array binding signal (z-score),[19],-0.051
same,glycan array binding signal (z-score),[20],-0.022
same,glycan array binding signal (z-score),[21],-0.059
same,glycan array binding signal (z-score),[22],-0.105
same,glycan array binding signal (z-score),[23],-0.121
same,glycan array binding signal (z-score),[24],-0.089
same,glycan array binding signal (z-score),[25],-0.125
same,glycan array binding signal (z-score),[26],-0.062
same,glycan array binding signal (z-score),[27],-0.148
same,glycan array binding signal (z-score),[28],-0.084
same,glycan array binding signal (z-score),[29],-0.065
same,glycan array binding signal (z-score),[30],-0.113
same,glycan array binding signal (z-score),[31],-0.092
same,glycan array binding signal (z-score),[32],-0.12
same,glycan array binding signal (z-score),[33],-0.082
same,glycan array binding signal (z-score),[34],-0.098
same,glycan array binding signal (z-score),[35],-0.105
same,glycan array binding signal (z-score),[36],-0.092
